About 14,000 (4.5%) of roughly 310,000 compounds showed an effect of 50% or more. The effect is printed as a negative number. This is one part of the list.

The record followed here is article PMC4336329 (PLoS ONE, 2015).
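Note: peak tail current of the secondary pulse compared with the same well before compound.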

The target in the assay is human ether-à-go-go-related gene (hERG) potassium channel (human, UniProt Q12809). Kind of assay: primary screen, population patch clamp on CHO cells stably expressing hERG.
Sequence of human ether-à-go-go-related gene (hERG) potassium channel (Q12809 whole entry, looked up): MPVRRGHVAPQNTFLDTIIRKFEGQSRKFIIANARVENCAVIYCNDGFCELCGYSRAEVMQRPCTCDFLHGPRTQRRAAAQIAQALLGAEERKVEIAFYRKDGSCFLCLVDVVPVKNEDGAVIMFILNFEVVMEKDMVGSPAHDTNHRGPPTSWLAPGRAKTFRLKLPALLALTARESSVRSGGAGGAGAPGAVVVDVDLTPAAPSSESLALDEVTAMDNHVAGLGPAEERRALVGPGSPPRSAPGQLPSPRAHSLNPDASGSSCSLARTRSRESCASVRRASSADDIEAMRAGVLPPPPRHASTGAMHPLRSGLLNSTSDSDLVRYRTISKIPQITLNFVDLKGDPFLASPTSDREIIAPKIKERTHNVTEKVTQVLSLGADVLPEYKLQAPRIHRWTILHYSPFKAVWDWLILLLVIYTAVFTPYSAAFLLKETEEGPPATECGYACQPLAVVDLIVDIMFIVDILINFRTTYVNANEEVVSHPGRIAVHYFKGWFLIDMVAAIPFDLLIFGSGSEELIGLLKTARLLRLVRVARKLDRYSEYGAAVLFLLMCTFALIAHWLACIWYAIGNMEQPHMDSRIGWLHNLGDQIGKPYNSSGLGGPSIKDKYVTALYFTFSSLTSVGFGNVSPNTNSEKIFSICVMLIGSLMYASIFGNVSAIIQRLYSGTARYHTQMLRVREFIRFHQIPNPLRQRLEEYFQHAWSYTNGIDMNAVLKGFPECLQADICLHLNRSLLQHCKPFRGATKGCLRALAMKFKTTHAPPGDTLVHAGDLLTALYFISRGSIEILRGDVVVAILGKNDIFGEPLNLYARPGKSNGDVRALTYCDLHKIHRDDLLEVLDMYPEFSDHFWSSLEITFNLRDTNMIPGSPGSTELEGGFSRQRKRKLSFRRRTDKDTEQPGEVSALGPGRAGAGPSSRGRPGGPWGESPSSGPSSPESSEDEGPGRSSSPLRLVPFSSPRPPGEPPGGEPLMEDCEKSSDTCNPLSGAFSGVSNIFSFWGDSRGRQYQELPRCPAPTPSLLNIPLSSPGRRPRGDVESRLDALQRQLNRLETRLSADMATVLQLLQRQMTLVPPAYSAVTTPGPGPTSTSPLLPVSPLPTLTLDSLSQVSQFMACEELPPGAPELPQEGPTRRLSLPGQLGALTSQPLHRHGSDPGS
Regarding `Fc1ccc(CNC(=S)NC2CCCCCC2)cc1`, the “hERG current change (%, negative = inhibition) at 10uM” value came to 14%.

Take `O=C1NCCN(Cc2ccc(Cl)c(F)c2)C1CC(=O)N1CCc2ccccc2C1` (stereo not drawn): the “hERG current change (%, negative = inhibition) at 10uM” value was -11.6%. With `CCn1nnc(NC(=O)c2ccc(-c3ccccc3[N+](=O)[O-])o2)n1` the figure was 1.59%. The figure for `Cc1csc2ncc(C(=O)NCc3ccco3)c(=O)n12` is -9.02%. With `CC(C)c1nnc(NC(=O)CCC(=O)NCC2CCCO2)s1` (stereo not drawn) the figure was -7.37%; with `CC(=O)c1cccc(Oc2cc(NN3CCCCC3)c([N+](=O)[O-])cc2[N+](=O)[O-])c1`, -12.8%.

In the case of `CC(=O)NC1C(=O)N(CCc2ccccc2)c2ccccc21` (stereo not drawn), the “hERG current change (%, negative = inhibition) at 10uM” value is given as 6.92%. With `O=C(COc1ccc([N+](=O)[O-])cc1)Nc1cc(S(=O)(=O)N2CCCCC2)ccc1N1CCCCC1` the figure was 1.79%; with `CCOC(=O)c1nc(-c2ccc(OC)c(OC)c2)no1`, 1.97%. With `CCOC(=O)COc1ccc(/C=C2\NC(=S)N(CC)C2=O)cc1` the figure was 2.08%. With `COc1ccc(S(=O)(=O)Nc2ccccc2OC)cc1NC(=O)Cc1cccs1`, the “hERG current change (%, negative = inhibition) at 10uM” value was -4.21%. In the case of `C/C(=N\NC(=O)CN(c1ccccc1)S(=O)(=O)c1ccccc1[N+](=O)[O-])C(C)(C)C`, the “hERG current change (%, negative = inhibition) at 10uM” value is -15%. With `CCOC(=O)c1cnc(-n2nc(C)cc2C)nc1NNc1cc(C)nc(-c2ccccc2)n1` the figure was -5.89%; with `Cc1ccc(/C=N/Nc2ccc3ccccc3n2)o1`, -47.4%; with `CC(=O)n1cc([C@@H]2C=C(C(=O)O)O[C@H](OCc3ccc(CO)cc3)C2)c2ccccc21`, 0.587%. Take `Cc1ccc2nc(SCC(=O)N3CC(C)OC(C)C3)nc(=O)n2c1` (stereo not drawn): the “hERG current change (%, negative = inhibition) at 10uM” value is -13%.

On to `Cc1cccc(Cn2c(N3CCc4ccccc4C3)nc3c2c(=O)[nH]c(=O)n3C)c1`, for which the “hERG current change (%, negative = inhibition) at 10uM” value is -4.89%. The figure for `CCN(C(=O)CN1CCN(c2ccc(OC)cc2)CC1)c1c(N)n(Cc2ccccc2)c(=O)[nH]c1=O` is -2.39%.

`CC(C)(C)c1cc(OS(C)(=O)=O)ccc1O`: the “hERG current change (%, negative = inhibition) at 10uM” value came out at 12.8%. The figure for `O=C(Cc1ccccc1F)OCC(=O)N1CCN(C(=O)c2ccco2)CC1` is -22.6%; for `O=C(OCc1nc2ccccc2s1)c1cccc(N2C(=O)CCC2=O)c1` it is 15.7%; for `CC1=CC(C)(C)n2c(O)c(N=NC(N)=S)c3c(C)ccc1c32` it is 14.8%. For `CN1C(=O)/C(=C/c2ccco2)SC1=Nc1cccc(C(=O)O)c1`, the “hERG current change (%, negative = inhibition) at 10uM” value came to 17.6%. For the compound `COc1cccc(NS(=O)(=O)c2ccc(OC)c(OC)c2)c1`, the “hERG current change (%, negative = inhibition) at 10uM” value is -9.37%. The figure for `CCn1c2ccc(F)cc2c2nnc(SCCN3CCCCC3)nc21` is -61%; for `O=C(/C=C/c1ccco1)NCCc1ccccc1` it is 10.9%. With `CC(C)N1C(=O)S/C(=C\c2ccc(-c3ccc(Cl)c(C(=O)O)c3)o2)C1=O` the figure was 28.5%; with `Cc1cc(C(F)F)n2ncc(C(=O)NCc3ccccc3C(F)(F)F)c2n1`, 9.36%.

On to `COc1cccc(C(C)NC(=O)Cc2cccs2)c1` (stereo not drawn), for which the “hERG current change (%, negative = inhibition) at 10uM” value is 16.1%.

For `CCOC(=O)C[n+]1c(C)csc1C.[Br-]`, the “hERG current change (%, negative = inhibition) at 10uM” value is reported as 9.24%. The figure for `Cc1cccnc1-n1c(CN2C(=O)c3ccccc3C2=O)nc2ccccc2c1=O` is 4.46%; for `COc1cccc(-n2c(CN3CCN(c4ccccc4)CC3)nc3ccc([N+](=O)[O-])cc3c2=O)c1` it is -8.34%.

With `C=CCN(c1cccc(C(F)(F)F)c1)S(=O)(=O)c1cccc(C(=O)OCC(=O)NC)c1`, the “hERG current change (%, negative = inhibition) at 10uM” value is reported as -39.3%.

For `Cc1ccccc1C(=O)NCCNC(=O)c1ccco1`, the “hERG current change (%, negative = inhibition) at 10uM” value came out at 17.2%.

On to `O=C(CSc1nccn1Cc1ccco1)Nc1ccc(F)cc1`, for which the “hERG current change (%, negative = inhibition) at 10uM” value came to 12.5%.

For the compound `Cc1ccc(SCCNC(=O)c2ccc(C)c(S(=O)(=O)Nc3ccccc3C)c2)cc1`, the “hERG current change (%, negative = inhibition) at 10uM” value is -5.49%. Regarding `NC(=O)c1ccccc1NC(=O)CCN1C(=O)c2ccccc2C1=O`, the “hERG current change (%, negative = inhibition) at 10uM” value is -3.56%. With `CCc1nnc(NC(=O)CSc2nc3cccnc3n2Cc2ccccc2)s1` the figure was 2.43%. With `CCCCNC(=O)[C@H]1C[C@H]1[C@@H](O)[C@H](CO)NC(=O)[C@H](CC(C)C)NC(=O)OC(C)(C)C` the figure was 16.1%; with `CCCN1CCN(c2ccc([N+](=O)[O-])cc2C#N)CC1`, -72%; with `Cc1ccc(OCCC(=O)OCC(=O)Nc2cc(S(=O)(=O)N(C)C)ccc2C)cc1`, -26.6%. With `CC1CC(C)(C)N(C(=O)CSc2ccc(-c3ccc(F)cc3)nn2)c2ccccc21` (stereo not drawn) the figure was -2.49%; with `COc1ccc(CNC(=O)CN(CCC(C)C)S(=O)(=O)c2ccc3c(c2)OCCO3)cc1`, -7.73%; with `CC(/C=N/n1c(-c2cccnc2)n[nH]c1=S)=C\c1ccco1`, 0.108%. Take `CCN(CC)CCNc1nc(-c2ccco2)c2c(c1C#N)CC(C)(C)OC2`: the “hERG current change (%, negative = inhibition) at 10uM” value was -62.6%. Regarding `COC(=O)Cc1n[nH]c(=S)[nH]c1=O`, the “hERG current change (%, negative = inhibition) at 10uM” value is on record as 24.4%. Turning to `CCCCn1c(-c2ccc(F)c(F)c2)nc2cc3[nH]c(=O)c(C(C)C)nc3cc21`, the “hERG current change (%, negative = inhibition) at 10uM” value is reported as 5.72%.

Consider `Cc1cc(NC(=O)c2nn(C)c(C)c2Br)no1`, for which the “hERG current change (%, negative = inhibition) at 10uM” value is recorded as 14.4%. The figure for `Cc1ccc2[nH]c(=O)c(CN(Cc3cccs3)Cc3nnnn3CC3CCCO3)cc2c1` (stereo not drawn) is -22.4%; for `COc1ccccc1C(=O)NCCC(=O)Nc1ccc(S(=O)(=O)Nc2ncccn2)cc1` it is -8.99%. The figure for `O=C1CC(N2CCN(S(=O)(=O)c3ccc([N+](=O)[O-])cc3)CC2)C(=O)N1c1ccccc1F` (stereo not drawn) is -46.6%; for `CCCC/C=C/C(NC(=O)c1ccc(-c2ccccc2)cc1)c1ccccc1` (stereo not drawn) it is 0.293%. The figure for `CCOc1ccc(NC(=O)Cn2cc(C(=O)c3ccco3)c3ccccc32)cc1` is -11.4%; for `COc1nc(-c2ccccc2)cc(-c2ccc3c(c2)OCO3)c1C#N` it is 1.15%.
